Experimental data published in PubChem BioAssay AID1745853 (National Center for Advancing Translational Sciences (NCATS), 2022).
The list shows a part of the results. These are further read-outs of the screen, such as a control signal, another cell line or another target. No call is given for them.

Tests used:
Assay in all cases: Primary Screen for Target Class Profiling of Small Molecule Inhibitors of Methyltransferases
[1] = biological target: Glycine N-methyltransferase (Homo sapiens) (UniProt Q14749); conditions: purified enzyme, MTase-Glo SAH luminescence; measured here: GNMT inhibition; at 40 µM; stronger effect = lower value
Method in brief: (§1)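 Each enzyme was assayed with SAM and its substrate. SAH formation detected by MTase-Glo luminescence; single-point 40 uM screen[…].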

[2] = biological target: Guanidinoacetate N-methyltransferase (Homo sapiens) (UniProt Q14353); conditions: purified enzyme, MTase-Glo SAH luminescence; measured here: GAMT inhibition; at 40 µM; stronger effect = lower value
Method in brief: as §1

[3] = biological target: Histamine N-methyltransferase (Homo sapiens) (UniProt P50135); conditions: purified enzyme, MTase-Glo SAH luminescence; measured here: HNMT inhibition; at 40 µM; stronger effect = lower value
Method in brief: as §1

[4] = biological target: Nicotinamide N-methyltransferase (Homo sapiens) (UniProt P40261); conditions: purified enzyme, MTase-Glo SAH luminescence; measured here: NNMT inhibition; at 40 µM; stronger effect = lower value
Method in brief: as §1

[5] = biological target: Phenylethanolamine N-methyltransferase (Homo sapiens) (UniProt P11086); conditions: purified enzyme, MTase-Glo SAH luminescence; measured here: PNMT inhibition; at 40 µM; stronger effect = lower value
Method in brief: as §1
% is set by controls: 0 for no effect and ±100 for the full control effect.

Row | SMILES | activity change, negative = inhibition [1] | activity change, negative = inhibition [2] | activity change, negative = inhibition [3] | activity change, negative = inhibition [4] | activity change, negative = inhibition [5]
1 | COc1ccc(-c2nnc(-c3ccc(Cl)c(S(=O)(=O)N4CCCCC4)c3)o2)cc1 | 14.2% | 1.69% | 12.6% | 7.56% | 7.54%
2 | Cc1cnc(C(=O)N[C@@H]2CCC[C@@H]2C(=O)N2CCC(N3CCCCC3)CC2)cn1 | -9.14% | -12.3% | -12.4% | -19.5% | -14.3%
3 | CCCn1nc2c(c1C)C(c1ccc(OCC(N)=O)c(Cl)c1)CC(=O)N2 (stereo unspecified) | -6.25% | -3.47% | 0.117% | -17.5% | -4.17%
4 | O=C(CCc1nnc2n(Cc3ccccc3Cl)c(=O)c3ccccc3n12)NCCN1CCCC1 | -1.66% | 0.39% | -18.8% | 14.4% | 1.79%
5 | COc1ccccc1N1CCN(C(=O)Cn2c(C)cc3nc4n(c(=O)c32)CCCCC4)CC1 | -5.04% | -1.52% | -0.377% | -6.86% | -4.04%
6 | Cc1cccc(CNC(=O)C2(C)Cn3cnc(C(=O)NC4CCCCC4)c3C(=O)N2C2CC2)c1 (stereo unspecified) | 1.05% | 1.19% | 5.71% | -1.97% | 6.18%
7 | CC12CC(O)C(O)C=C1c1cc(O)cc(O)c1C(=O)O2 (stereo unspecified) | 5.12% | 4.78% | 7.83% | -7.59% | 6.95%
8 | O=C(NCC1CC1)c1nc2c(o1)CCN(CCCc1ccccc1)CC2 | -8.96% | -7.35% | -7.13% | -13% | -25.2%
9 | C/C(=C1/C(=O)Nc2ccc(NC(N)=O)cc21)c1ccc[nH]1 | – | 3.99% | – | -39.3% | 1.06%
10 | Cc1cc(F)ccc1NC(=O)CCC1CCCN(C(=O)c2ccc(Cl)s2)C1 (stereo unspecified) | -7.11% | -10.3% | -4.85% | -15.7% | -8.67%
11 | COC(=O)c1ncn2c1C(=O)N(c1cc(C)cc(C)c1)C(C)(C(=O)NC1CCCC1)C2 (stereo unspecified) | 2.62% | 0% | -3.03% | 1.29% | -2.2%
12 | CC(C)n1cc(C(=O)N2CCCC(c3nnc(Cn4ccnc4)n3C)C2)cn1 (stereo unspecified) | -1.25% | -3.57% | 0.56% | -8.11% | -2.08%
13 | COc1ccc2cc3n(c2c1)CC(C)(C(=O)NC1CCCCC1)N(CCCN1CCCCC1)C3=O (stereo unspecified) | -2.29% | 2.35% | -3.29% | -1.06% | -4.88%
14 | COc1ccc(OC)c(S(=O)(=O)N2CCCC(Cc3ncc(C)n3C(C)C)C2)c1 (stereo unspecified) | -6.75% | -4.11% | -1.32% | -17.5% | -3.17%
15 | COc1cccc(N2C(=O)c3cc(-c4cccs4)nn3CC2(C)C(=O)NC2CCCCCC2)c1 (stereo unspecified) | 3.32% | 0.316% | 8.29% | -0.719% | 1.73%
16 | O=c1cc(-c2cccnc2)oc2c(NCCc3ccccn3)nccc12 | -18.2% | -16.2% | -17.6% | -34.6% | -11.8%
17 | CC(NC(=O)c1cc2n(n1)CC(C)(C(=O)NC1CCCCC1)N(C)C2=O)c1ccc2c(c1)OCCO2 (stereo unspecified) | -3.05% | -12.1% | 1.6% | -6.65% | -5.21%
18 | N#C/C(=C\c1ccc(O)c(O)c1)C(=O)Nc1ccccc1 | -18.7% | 11.3% | 6.22% | -11.3% | 6.74%
19 | CCN(CC)CC(=O)N1CCC(Oc2ccccc2C)(C(=O)O)CC1 | 0.548% | -1.58% | -0.852% | 1.59% | 1.53%
20 | CCc1cccc(N2C(=O)c3ccc(-c4ccco4)n3CC2(C)C(=O)NC2CCCC2)c1 (stereo unspecified) | -10.9% | 0.776% | 6.08% | 4.04% | -1.78%
21 | CNc1cc2c(Nc3cccc(Br)c3)ncnc2cn1 | – | -20.3% | – | -26.4% | -55.7%
22 | CCCn1c(=O)c2ccc(C(=O)NCC(C)C)cc2n2c(=O)n(CC(=O)Nc3cc(F)ccc3F)nc12 | -0.713% | 0.286% | -0.102% | -4.59% | -1.71%
23 | Cc1ccc(NC(=O)Cn2nc3n(CC(C)C)c(=O)c4ccc(C(=O)NC(C)C)cc4n3c2=O)cc1 | -0.381% | 5.52% | -0.549% | -2.63% | -2.16%
24 | C=CC(C)(CC/C=C(\C)C(=O)OC[C@H]1O[C@@H](OC(C)(C=C)CC/C=C(\C)C(=O)O[C@H]2[C@H](O)[C@@H](O)[C@H](OC(C)(C=C)CC/C=C(\C)C(=O)O)O[C@@H]2CO)[C@H](O)[C@@H](O)[C@@H]1O)O[C@@H]1O[C@H](CO)[C@@H](O)[C@H](O)[C@H]1O (stereo partly specified) | 6.55% | 6.15% | 10% | -5.9% | 7.01%
25 | COC1=CC(=O)CC(C)C12Oc1cc(OC)cc(O)c1C2=O (stereo unspecified) | 0% | -0.076% | 2.89% | -11.7% | 3.07%
26 | O=C(c1ccccc1)N1CCCC2(CC(c3cccc(C(F)(F)F)c3)=NO2)C1 (stereo unspecified) | -3.85% | 1.69% | 0.96% | -3.25% | -4.03%
27 | O=C(c1ccc(C2CCCNC2)cc1)N1CCCN(c2ccc(F)cc2)CC1 (stereo unspecified) | -1.97% | -0.586% | -4.63% | -5.98% | -2.55%
28 | COc1cccc(CN(C(=O)CC(C)(C)C)C2CC(C(=O)N3CCNCC3)N(Cc3ccc4c(c3)OCO4)C2)c1 (stereo unspecified) | -1.13% | -0.021% | 9.85% | -24.4% | 2.59%
29 | O=C(Cn1nc2nc(Nc3ccc(F)cc3)ccn2c1=O)Nc1ccc(F)cc1F | -4.89% | 0% | 0.013% | -13.9% | -10.8%
